Experiment [1] concerns the target T1, VEGF-A (human, UniProt P15692-4 27-191, limits assumed).
T1 sequence (looked up): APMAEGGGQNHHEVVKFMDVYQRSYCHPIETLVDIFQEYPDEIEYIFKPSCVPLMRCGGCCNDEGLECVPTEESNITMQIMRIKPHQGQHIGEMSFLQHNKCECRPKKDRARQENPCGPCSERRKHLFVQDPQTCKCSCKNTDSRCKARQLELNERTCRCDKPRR
Kind of experiment: cell-based or functional assay.

In experiment [2] the target is T1, VEGF-A. Kind of experiment: direct ELISA, VEGF-A coated, anti-human IgG Fc HRP detection. Here is the method: The bound proteins after washing were detected with HRP conjugated goat anti-human IgG Fc specific antibody and OD₄₅₀ readings were plotted, and the results indicated Fc-VT binds to VEGF-A with EC₅₀ of 0.33 nM.
(§1) Overnight ligand pre-coated (100 ng/well) wells were washed 3 times with 1× PBS and blocked with 400 ul 5% non-fat skin milk in PBS for 2 hr. After blocking, 100 ul of 3-fold serially diluted purified protein started from 30 nM were added to each corresponding well in duplicate and incubated for 1 hr at room temperature on shaker. After binding, wells were washed 3 times with PBST (1× PBS with 0.1% Tween-20) before adding 100 ul of 1:2500 diluted goat anti-human IgG Fe HRP conjugates (Jackson ImmunoResearch Inc.) to each well and incubated on shaker for another hour. After final washing, TMB reagent (Invitrogen, Inc.) was added and OD absorption at 450 nm was measured. The data analyzed by sigmoidal curve fitting using Prism 4. Binding of AT-Fc, Fc-VT, and AT-Fc-VT to ANG or VEGF were assessed by similar assays.
A general note: ELISA stands for enzyme-linked immunosorbent assay.

The target in experiment [3] is T2, ANG1 (UniProt Q15389 20-498, limits assumed).
T2 construct: also called angiopoietin 1
T2 sequence (looked up): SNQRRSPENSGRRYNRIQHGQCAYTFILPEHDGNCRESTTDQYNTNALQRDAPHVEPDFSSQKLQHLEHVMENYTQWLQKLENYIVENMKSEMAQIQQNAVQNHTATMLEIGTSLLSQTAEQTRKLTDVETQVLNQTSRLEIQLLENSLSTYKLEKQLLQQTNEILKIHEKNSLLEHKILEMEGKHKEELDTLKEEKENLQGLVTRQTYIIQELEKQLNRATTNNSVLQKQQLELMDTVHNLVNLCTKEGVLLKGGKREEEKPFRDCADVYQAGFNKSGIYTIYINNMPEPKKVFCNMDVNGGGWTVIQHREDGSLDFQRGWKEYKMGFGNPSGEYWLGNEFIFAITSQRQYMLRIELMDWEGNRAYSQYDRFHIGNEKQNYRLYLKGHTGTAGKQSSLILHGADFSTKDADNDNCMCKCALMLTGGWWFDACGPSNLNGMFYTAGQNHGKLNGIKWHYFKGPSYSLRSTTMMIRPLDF
Kind of experiment: direct ELISA, ligand coated, anti-human IgG Fc HRP detection. The procedure: (§2) The ligand pre-coated wells were first incubated with various concentrations of purified AT-Fc protein.
as §1

In experiment [4] the target is T3, ANG2 (UniProt O15123 19-496, limits assumed).
T3 construct: also called angiopoietin 2; recombinant ANG2 (PeproTech)
T3 sequence (looked up): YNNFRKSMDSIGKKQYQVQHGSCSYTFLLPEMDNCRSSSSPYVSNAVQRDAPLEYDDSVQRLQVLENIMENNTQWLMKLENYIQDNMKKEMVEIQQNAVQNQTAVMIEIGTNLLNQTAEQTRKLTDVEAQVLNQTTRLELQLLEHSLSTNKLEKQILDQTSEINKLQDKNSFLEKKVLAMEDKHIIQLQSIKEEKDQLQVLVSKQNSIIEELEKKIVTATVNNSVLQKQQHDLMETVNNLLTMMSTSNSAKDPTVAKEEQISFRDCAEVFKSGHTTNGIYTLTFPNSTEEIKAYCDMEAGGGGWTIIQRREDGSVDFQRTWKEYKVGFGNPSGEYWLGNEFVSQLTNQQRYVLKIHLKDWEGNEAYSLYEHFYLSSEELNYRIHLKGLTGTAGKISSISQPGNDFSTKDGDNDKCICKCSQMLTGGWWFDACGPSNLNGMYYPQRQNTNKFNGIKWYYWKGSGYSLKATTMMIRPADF
Described as above. The procedure:
as §2, §1

The target of experiment [5] is T1, VEGF-A. Described as above. The procedure: as §2, §1

The values below come from US20200055958A1 (TRICAN BIOTECHNOLOGY, published 2020).

B1: Fc-VT protein (IgG1 Fc, GS linker, chimeric VEGFR1 ECD D2 / VEGFR2 ECD D3 at the C-terminal) (Fc fusion)
chain: [here human IgG1 Fc and a few adjoining residues without letters]GGGSGGGGSGGGGSGDTGRPFVEMYSEIPEIIHMTEGRELVIPCRVTSPNITVTLKKFPLDTLIPDGKRIIWDSRKGFIISNATYKEIGLLTCEATVNGHLYKTNYLTHRQTNTIIDVVLSPSHGIELSVGEKLVLNCTARTELNVGIDFNWEYPSSKHQHKKLVNRDLKTQSGSEMKKFLSTLTIDGVTRSDQGLYTCAASSGLMTKKNSTFVRVHEK
Broadly, the EC50 is the concentration giving half of the maximal effect. Higher therefore signals a less potent agent. On to B1, for which the “IC50, VEGF-dependent HUVEC cell proliferation assay (MTS)” value in experiment [1] came to 0.2 nM. It took 0.33 nM to reach a half-maximal effect in experiment [2] (EC50).

B2: AT-Fc protein (Tie2 ECD amino acid residues 23-448 fused to the N-terminal of IgG1 Fc) (Fc fusion)
chain: AMDLILINSLPLVSDAETSLTCIASGWRPHEPITIGRDFEALMNQHQDPLEVTQDVTREWAKKVVWKREKASKINGAYFCEGRVRGEAIRIRTMKMRQQASFLPATLTMTVDKGDNVNISFKKVLIKEEDAVIYKNGSFIHSVPRHEVPDILEVHLPHAQPQDAGVYSARYIGGNLFTSAFTRLIVRRCEAQKWGPECNHLCTACMNNGVCHEDTGECICPPGFMGRTCEKACELHTFGRTCKERCSGQEGCKSYVFCLPDPYGCSCATGWKGLQCNEACHPGFYGPDCKLRCSCNNGEMCDRFQGCLCSPGWQGLQCEREGIQRMTPKIVDLPDHIEVNSGKFNPICKASGWPLPTNEEMTLVKPDGTVLHPKDFNHTDHFSVAIFTIHRILPPDSGVWVCSVNTVAGMVEKPFNISVKVLPKPLAS[here human IgG1 Fc without letters]
With B2, the figures for the EC50 in experiment [3] and in experiment [4] were 4.26 nM and 2.01 nM, respectively.

B3: AT-Fc-VT bi-functional fusion protein (Fc fusion)
chain: AMDLILINSLPLVSDAETSLTCIASGWRPHEPITIGRDFEALMNQHQDPLEVTQDVTREWAKKVVWKREKASKINGAYFCEGRVRGEAIRIRTMKMRQQASFLPATLTMTVDKGDNVNISFKKVLIKEEDAVIYKNGSFIHSVPRHEVPDILEVHLPHAQPQDAGVYSARYIGGNLFTSAFTRLIVRRCEAQKWGPECNHLCTACMNNGVCHEDTGECICPPGFMGRTCEKACELHTFGRTCKERCSGQEGCKSYVFCLPDPYGCSCATGWKGLQCNEACHPGFYGPDCKLRCSCNNGEMCDRFQGCLCSPGWQGLQCEREGIQRMTPKIVDLPDHIEVNSGKFNPICKASGWPLPTNEEMTLVKPDGTVLHPKDFNHTDHFSVAIFTIHRILPPDSGVWVCSVNTVAGMVEKPFNISVKVLPKPLAS[here human IgG1 Fc without letters]GGGSGGGGSGGGGSGDTGRPFVEMYSEIPEIIHMTEGRELVIPCRVTSPNITVTLKKFPLDTLIPDGKRIIWDSRKGFIISNATYKEIGLLTCEATVNGHLYKTNYLTHRQTNTIIDVVLSPSHGIELSVGEKLVLNCTARTELNVGIDFNWEYPSSKHQHKKLVNRDLKTQSGSEMKKFLSTLTIDGVTRSDQGLYTCAASSGLMTKKNSTFVRVHEK
notes: also called bi-functional fusion protein AT
B3: the “IC50, VEGF-dependent HUVEC cell proliferation assay (MTS)” value in experiment [1] was determined as 0.26 nM. Besides, the EC50 is 0.35 nM in experiment [5] and 2.57 nM in experiment [4].
